As a reminder, the inhibition is the relative decrease from the control value, in per cent.

Each structure is given as a SMILES string. In all, about 340,000 compounds went through this assay and about 6,900 (2%) were called active. No stated cut-off is given here; in the data, active means inhibition above about 30%; inactive means below that, where a call was filed. Only a part is listed here, and it is no random draw. The source gives no active or inactive call for entries shown without one.

Results on 62 compounds are retold here after PubChem BioAssay AID485344 (National Center for Advancing Translational Sciences (NCATS), 2010).

This test has as its target D(2) dopamine receptor (Homo sapiens) (UniProt P14416). Nature of the test: HTS Assay for Allosteric Antagonists of the Human D2 Dopamine Receptor: Primary Screen for Antagonists. Further: 0% is about no effect. To be noted: HEK293 TREx D2 cells, calcium flux, dopamine EC80; at 10 µM; stronger effect = higher value. The procedure, abridged: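 Compounds are added to dye-loaded, induced HEK293 T-REx cells coupled to calcium release via D2; after a 3 min kinetic read an EC80 dopamine stimulus is given and fluorescence is recorded for 3 more min.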
Sequence of UniProt P14416 (P14416 whole entry, looked up): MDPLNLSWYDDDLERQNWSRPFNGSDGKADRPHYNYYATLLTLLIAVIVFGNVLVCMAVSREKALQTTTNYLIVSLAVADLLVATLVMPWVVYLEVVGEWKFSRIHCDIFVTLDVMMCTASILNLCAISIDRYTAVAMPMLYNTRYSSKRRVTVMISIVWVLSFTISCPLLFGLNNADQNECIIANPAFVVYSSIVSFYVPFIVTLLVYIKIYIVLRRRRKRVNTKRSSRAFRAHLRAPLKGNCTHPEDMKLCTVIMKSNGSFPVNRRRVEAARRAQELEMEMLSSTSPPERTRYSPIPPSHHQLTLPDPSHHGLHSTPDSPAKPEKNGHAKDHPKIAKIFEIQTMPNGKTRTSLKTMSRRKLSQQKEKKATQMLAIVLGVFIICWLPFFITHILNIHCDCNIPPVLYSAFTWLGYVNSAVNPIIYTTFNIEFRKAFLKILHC
For orientation: Calcium assays in cells follow changes in intracellular calcium, usually with a dye or a luminescent sensor.
For `Cc1noc(-c2ccccc2OCC(=O)Nc2cccc([N+](=O)[O-])c2)n1`, the inhibition was 2.39%.
To `CC(=O)c1ccc(N2CCN(C(=O)NCc3noc4ccc(C)cc34)CC2)cc1` belongs -14%; to `Cc1ccccc1NC(=O)CC1C(=O)NCCN1C(=O)c1cccc(Cl)c1` (configuration not stated), -5.49%.
With `COC(=O)CCc1sc(Nc2ccc(OC)cc2)nc1-c1ccc(OC)cc1`, the inhibition is -11.6%.
To `Cc1ccc2cc(CN(CC3CCCO3)C(=S)NCc3ccco3)c(=O)[nH]c2c1C` (configuration not stated) belongs active: 33.2%; to `Cc1cc(C)cc(NC(=O)C2CCN(S(=O)(=O)c3cccc4nonc34)CC2)c1`, 4.75%; to `COc1ccc(CNC(=O)Nc2cn(CC(C)C)c(=O)c3ccccc23)c(OC)c1`, -11.4%.
The same measure for `O=C(Nc1ccccc1N1CCN(C(=O)c2ccccc2)CC1)c1cc2ccccc2o1`: active: 62.9%; for `CCCn1cc(SCC(N)=O)c2ccccc21`: active: 31.1%.
The same measure for `CC(C)=CCN1CCN(Cc2cccn2-c2ccccn2)CC1CCO` (configuration not stated): active: 98.6%; for `CCC(Oc1ccccc1)C(=O)Nc1nnc(S(=O)(=O)Nc2ccccc2)s1` (configuration not stated): -21.8%; for `CCc1ccc(CNC(=O)c2ccc(CSc3nc4ccncc4n3Cc3ccccc3)cc2)cc1`: -6.72%.
As to `COCCNC(=O)CCC(=O)NNc1nc2ccccc2c2nc(-c3ccccc3)nn12`, the inhibition worked out at 9.32%.
The same measure for `CCOc1ccccc1OCCCNCc1ccccc1`: active: 50%; for `Clc1ccccc1-c1nc(Nc2ccccc2)nc2ccc(Br)cc12`: 2.78%; for `Cc1ccc(NC(=O)N2CCC(n3c(C)nc4cccnc43)CC2)c(Cl)c1`: -6.69%.
To `CCOc1ccc(NC(=O)CSc2ncc3c(n2)-c2ccccc2N(C)S3(=O)=O)cc1` belongs 3.59%.
The same measure for `COc1ccccc1NC(=O)Cn1c(=O)n(-c2cccc(C(C)=O)c2)c(=O)c2c3c(sc21)CN(C(C)=O)CC3`: 17.5%.
As for `O=C1CC(c2nc3ccccc3[nH]2)CN1c1cccc(C(F)(F)F)c1` (configuration not stated), the inhibition was active: 32.9%.
As to `CCN1CCN(C(=O)c2cnn(-c3ccc(F)cc3)c2-n2cccc2)CC1`, the inhibition was -20.9%.
Regarding `Cc1ccc(C2C=C(c3ccc(Cl)cc3)Nc3nc(NS(=O)(=O)c4ccccc4)nn32)cc1` (configuration not stated), the inhibition was -6.06%.
On to `O=C(CCC1N=C2c3ccccc3N=C(SCC(=O)Nc3ccccc3F)N2C1=O)NCc1ccccc1` (configuration not stated), for which the inhibition came out at 5.93%.
The same measure for `O=c1nc2sc3ccccc3n2c(=O)n1-c1ccc(Cl)c(Cl)c1`: 8.24%.
As for `O=C1c2[nH]nc(-c3ccccc3O)c2C(c2ccc(Cl)cc2)N1Cc1ccco1` (configuration not stated), the inhibition was -0.915%.
`c1ccc2c(NC3CCCC3)nnc(NC3CCCC3)c2c1`: the inhibition was active: 49.2%.
The same measure for `CCOCCCNC(=O)NC(C)c1c(-n2cccc2)sc2c1CCN(CC)C2` (configuration not stated): 6.33%; for `COc1cc(C=O)cc(Br)c1OCC(N)=O`: active: 34.2%.
The same measure for `O=C(CCc1nc(CN2CCN(S(=O)(=O)c3ccc(F)cc3)CC2)no1)N1CCCCC1`: 0.471%.
To `CCc1ccc(-n2c(SCc3ccccc3F)nc3[nH]ncc3c2=O)cc1` belongs -16%.
With `O=C(c1ccc2c(c1)N(Cc1ccccc1F)C(=O)c1ccccc1S2(=O)=O)N1CCCCC1`, the inhibition was -11.6%.
Take `COc1cccc(NC(=O)CSC2=Nc3ccccc3N=C(c3ccc(F)cc3)C2)c1`: the inhibition was 17%.
To `CCc1ccc(C(=O)c2cn(CC(=O)NCCc3ccc(OC)c(OC)c3)c3nc(C)ccc3c2=O)cc1` belongs 2.33%; to `CC(=O)N1CCN(c2ccccc2NC(=O)c2ccc3ccccc3c2)CC1`, active: 46.3%; to `COc1cccc(NC(=O)CSC2=Nc3ccccc3C3=NC(CC(=O)NCCc4ccccc4)C(=O)N23)c1` (configuration not stated), 4.61%.
For the compound `Cc1ccc(CNC(=O)CCCCn2c(=O)c3ccccc3n(Cc3c(C)cc(C)cc3C)c2=O)cc1`, the inhibition was -15.8%.
Regarding `CCOC(=O)c1ccccc1NC(=O)Cn1c(=O)n(Cc2nc(-c3ccccc3)no2)c(=O)c2ccccc21`, the inhibition came out at 5.03%.
To `COc1ccccc1N1CCN(C(=O)Cn2ncc3c([nH]c4ccccc43)c2=O)CC1` belongs 3.87%; to `Cc1ccc(C)n1-c1c(C(=O)NCCC(C)C)sc2ncccc12`, 20.3%; to `COCCc1nn2c(=O)cc(COC(=O)c3ccc(OC)c(OC)c3)nc2s1`, 6.49%.
The same measure for `Cc1oc2ncn(CC(C)C)c(=O)c2c1C(=O)N1CCN(c2cccc(C(F)(F)F)c2)CC1`: 1.86%; for `CCOC(=O)C1CCN(C(=O)Cn2c(=O)cc(C)c3c(C)nn(C)c32)CC1`: 6.45%; for `CCc1nn(-c2ccccc2)c2nc(-c3cccc(OC)c3)c3cc(OC)c(OC)cc3c12`: 0.113%.
The same measure for `COc1cc(-c2nc3nc[nH]n3c2Nc2ccc(C(C)C)cc2)ccc1O`: 11.5%.
Turning to `CN(Cc1cccc(C(F)(F)F)c1)C(=O)C1CCC(=O)N(CC2CCCCC2)C1` (configuration not stated), the inhibition was active: 30.9%.
The same measure for `OC(COc1ccc(Br)cc1)CN1CCN(c2ccccc2)CC1` (configuration not stated): active: 81.2%; for `CCOC(=O)c1c(N)n(-c2cccc(OC)c2)c2nc3ccccc3nc12`: 7.44%; for `O=[N+]([O-])c1cccc(NC(=S)NCCc2ccccc2)c1`: active: 79.7%.
In the case of `Cc1noc(C)c1C(=O)NCC1COc2ccccc2O1` (configuration not stated), the inhibition is active: 42%.
For the compound `COc1ccc(C(=O)NCCn2cc(SCC(=O)Nc3cccc(C)c3)c3ccccc32)cc1`, the inhibition worked out at 12.7%.
To `CCOc1ccc(NC(=O)C(NS(=O)(=O)c2cccc3nsnc23)c2ccccc2)cc1` (configuration not stated) belongs 9.18%.
The same measure for `O=C(NC1CCCCC1)c1cc2c(Cl)nc3ccccc3c2s1`: 22.7%; for `COc1ccccc1CNC(=O)C(=O)NCC(c1ccco1)S(=O)(=O)c1cccs1` (configuration not stated): 13.1%; for `Cc1cccc(-c2noc(CN(C(=O)COc3ccc(Br)cc3C)C(C)C)n2)c1`: -5.15%.
The same measure for `OCCCc1nc2ccccc2n1CCCCOc1ccccc1`: -1.55%; for `CCn1c(=O)n(CC)c2cc(N3CCCCC3)c(NC(=O)Nc3cc(C)cc(C)c3)cc21`: 4.66%.
Consider `CCn1cc(C(=O)N2CCN(c3cc(C)ccc3C)CC2)c(=O)c2cc(S(=O)(=O)N3CCOCC3)ccc21`, for which the inhibition amounted to 10.8%.
`COc1ccc(Cl)cc1NC(=O)Cn1c(=O)n(Cc2ccco2)c(=O)c2cccnc21`: the inhibition was -3.73%.
To `CCN(Cc1ccccc1)C(=O)c1nc(-c2cccc(F)c2)n2c1CCCCC2` belongs 13.4%.
Turning to `Cc1cc(C)c(CSc2nnc(C)n3c2cc2occc23)c(C)c1`, the inhibition was -3.16%.
The same measure for `COCCCNC(=O)C1CCCN(C(=O)c2cnn(-c3ccc(F)cc3)c2-n2cccc2)C1` (configuration not stated): -0.918%; for `Cc1ccn2c(Nc3ccccc3C)c(-c3ccccn3)nc2c1`: -12.4%.
Take `Cc1ccc(SCc2nc(-c3ccc(C(=O)NCc4ccc(Cl)cc4)cc3)oc2C)cc1`: the inhibition stood at 8.24%.
